# Test results from the supplement of paper PMC10126150.
# Sequences with one replicate were seen in a single cluster, so their values are uncertain.
# Tested on: ATP
# Test: switch fluorescence ratio, 500 uM ATP over buffer (Cy3 cluster intensity, sum of 5 cycles each) (fold (ratio)); higher = stronger signal-on switching upon ATP binding; sequences stand for … in TCGTCGGCAGCGTCAGATGTGTATAAGAGACAGTTTTTTTTTTTTTTTTTTTTTTTTT…TC
# Details: aptamer strand: ATP DNA aptamer (quencher-CACCTGGGGGAGTATTGCGGAGGAAGG + anchor), 100 nM annealed; ATP concentration: 500 uM; one replicate
# How it was run: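 Imaging in selection buffer was followed by imaging after 15 min with 500 uM ATP at 22 °C, for Cy3-labelled switching-strand clusters annealed to 100 nM quencher-labelled ATP aptamer on a modified Illumina MiSeq flow-cell. Five of these buffer/ATP cycles ran, separated by NaOH stripping and re-annealing. The fluorescence ratio per cluster is summed target-cycle over summed buffer-cycle Cy3 intensity, averaged per switch-domain sequence; clusters outside 100-1000 RFU were removed.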
# 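Note: ATP exposure 15 min at 22 °C before imaging.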
row,Sequence,switch fluorescence ratio
1,TCTCGATAAG,1
2,TCTCGCCTTG,0.96
3,TCTCGGTAAT,2.21
4,TCTCGTATCG,0.97
5,TCTCTAATTT,0.976
6,TCTCTGAGGT,1.05
7,TCTCTGGCTG,1.04
8,TCTGAAGATA,0.982
9,TCTGAGGAGA,0.979
10,TCTGCGGGTC,1.15
11,TCTGGAAACC,1.12
12,TCTGGAAGCT,1.01
13,TCTGGAGCGG,1.15
14,TCTGGAGGTT,1.04
15,TCTGGAGTAC,0.99
16,TCTGGAGTGC,1.33
17,TCTGGATAA,1.04
18,TCTGGCCGGT,0.972
19,TCTGGGCAAG,1.12
20,TCTGGGCACT,1.38
21,TCTGGGCAG,1.06
22,TCTGGGCCCA,1.03
23,TCTGGGTGAG,1.02
24,TCTGGTATGC,1.01
25,TCTGGTGGGA,1.01
26,TCTGTACTCT,1.01

row,Sequence,switch fluorescence ratio
1,TCTGTCAGTA,1.01
2,TCTGTCTGC,0.98
3,TCTGTGATTT,1.12
4,TCTGTGGTTT,0.975
5,TCTGTTAGTC,0.998
6,TCTTAAGTAT,0.999
7,TCTTAGTATA,1.01
8,TCTTATTCGG,1.05
9,TCTTCCTTCG,2.56
10,TCTTCGACGT,1.03
11,TCTTCGAGTT,1.01
12,TCTTCTCAG,0.977
13,TCTTCTTTAC,1.11
14,TCTTCTTTGG,0.972
15,TCTTGAATCT,0.995
16,TCTTGACGC,1.03
17,TCTTGATATA,0.979
18,TCTTGGGGTC,1.06
19,TCTTGTAGC,1.03
20,TCTTTAAGGG,0.942
21,TCTTTAGTGG,1.02
22,TCTTTATAGG,1.01
23,TCTTTATGCG,0.955
24,TCTTTGAAGG,1.01
25,TCTTTGCCTT,1.03
26,TCTTTGCTTT,1.04

row,Sequence,switch fluorescence ratio
1,TCTTTTCACG,1.02
2,TCTTTTCGT,1.04
3,TCTTTTGTAA,1.01
4,TCTTTTTAG,0.946
5,TGAAACCAAG,1.11
6,TGAAAGCCGC,1.02
7,TGAAAGGTAT,1.03
8,TGAAAGTATC,0.964
9,TGAACAAAGG,1.01
10,TGAACACGCC,1.1
11,TGAACATGCG,1
12,TGAACCTTGT,0.929
13,TGAACGGGAT,1
14,TGAACGGGT,1.04
15,TGAACGTCTG,1.02
16,TGAACTAT,1.02
17,TGAACTATA,0.999
18,TGAACTCACG,1.41
19,TGAACTTCG,0.98
20,TGAAGAGCCT,1.06
21,TGAAGCGTGT,0.978
22,TGAAGTCGG,0.989
23,TGAAGTGATC,1.08
24,TGAAGTTTGT,0.967
25,TGAATACACG,1.01
26,TGAATATAAT,0.982

row,Sequence,switch fluorescence ratio
1,TGAATCATGC,0.971
2,TGAATGGCC,1.02
3,TGAATTTAAT,0.97
4,TGACAAAGAC,1
5,TGACAACGTG,1.03
6,TGACAAGAGC,1.1
7,TGACAGCTGT,1.04
8,TGACAGGGAT,0.986
9,TGACAGGGG,1.05
10,TGACCAGGGT,1.01
11,TGACCGACAA,1.43
12,TGACCGCGAG,1.03
13,TGACCGCTAG,1.04
14,TGACCTATGC,1.11
15,TGACGCACGT,1.48
16,TGACGCGGGA,1.07
17,TGACGGCCTA,1.07
18,TGACGGCGGG,0.984
19,TGACGGGGCT,1.01
20,TGACGGTCAT,0.984
21,TGACGGTTAT,1.03
22,TGACGTCGGA,0.944
23,TGACTAAATT,1.06
24,TGACTCCCCA,1.96
25,TGACTCCGTT,1.96
26,TGACTCGGGA,1

row,Sequence,switch fluorescence ratio
1,TGACTGGGCA,0.934
2,TGACTTCTTG,1.01
3,TGAGAAATTT,1.24
4,TGAGAATGTG,1.71
5,TGAGACGCAT,1.41
6,TGAGACGTCG,1.03
7,TGAGAGAGGA,0.946
8,TGAGAGCTAT,1.55
9,TGAGAGGACT,1.01
10,TGAGCAACTT,1.07
11,TGAGCCAAAT,0.996
12,TGAGCGAGAT,1.07
13,TGAGCTGGT,0.99
14,TGAGCTGTCG,0.97
15,TGAGGAATAA,1.02
16,TGAGGCATAG,1.28
17,TGAGGCATTA,1.06
18,TGAGGCCTTG,1.04
19,TGAGGTGAGC,0.992
20,TGAGGTGTGG,0.919
21,TGAGTAACCT,1.75
22,TGAGTAAGCT,1.03
23,TGAGTACAGG,1.02
24,TGAGTACTGT,1
25,TGAGTAGAGA,0.978
26,TGAGTCTGGT,0.957

row,Sequence,switch fluorescence ratio
1,TGAGTGAGTT,0.97
2,TGAGTGCACC,0.999
3,TGAGTTTAG,0.996
4,TGAGTTTGAG,0.997
5,TGATAAAGAA,1.01
6,TGATAACGTG,1
7,TGATACAGCT,0.966
8,TGATACATTT,1.02
9,TGATACTGGT,0.988
10,TGATACTT,0.989
11,TGATACTTTA,1.01
12,TGATAGGCTG,1.06
13,TGATATAGTC,0.996
14,TGATATCAGC,0.999
15,TGATCACGCT,1.02
16,TGATCACTCT,1.02
17,TGATCAGCTA,1.01
18,TGATCATATA,0.976
19,TGATCCAATG,1.02
20,TGATCGAATG,1.02
21,TGATCGTCA,1.01
22,TGATCGTTGA,0.979
23,TGATCTAAAC,1.03
24,TGATGAACCT,1.93
